In patent US20040229298A1:

Assays:
[1] = biological target: T1, HPV16 E6 PDZ ligand peptide (biotinylated C-terminal peptide of the E6 protein of HPV 16) (human papillomavirus 16); test: G assay ELISA, signal over GST-only well
[2] = biological target: T1, HPV16 E6 PDZ ligand peptide …; test: G assay ELISA, immobilised GST-PDZ, 10 uM biotinylated peptide

| Binder | OD S/N [1] | Ave OD [2] |
| --- | --- | --- |
| GST-PDZK1 PDZ domains 2, 3, 4 fusion protein (protein) [about 200 residues not printed]SDLIEGRGGVQTWTQPRLCYLVKEGGSYGFSLKTVQGKKGVYMTDITPQGVAMRAGVLADDHLIEVNGENVEDASHEEVVEKVKKSGSRVMFLLVDKETDKRHVEQKIQFKRETASLKLLPHQPRIVEMKKGSNGYGFYLRAGSEQKGQIIKDIDSGSPAEEAGLKNNDLVVAVNGESVETLDHDSVVEMIRKGGDQTSLLVVDKETDNMYRLAHFSPFLYYQSQELPNGSVKEAPAPTPTSLEVSSPPDTTEEVDHKPKLCRLAKGENGYGFHLNAIRGLPGSFIKEVQKGGPADLAGLEDEDVIIEVNGVNVLDEPYEKVVDRIQSSGKNVTLLVCGKKAYDYFQA | 2.64 | 0.518 A450 nm |
| GST-MINT1 PDZ domains 1, 2 fusion protein (protein) [about 200 residues not printed]SDLIEGRIHFSKSENCKDVFIEKQKGEILGVVIVESGWGSILPTVIIANMMHGGPAEKSGKLNIGDQIMSINGTSLVGLPLSTCQSIIKGLKNQSRVKLNIVRCPPVTTVLIRRPDLRYQLGFSVQNGIICSLMRGGIAERGGVRVGHRIIEINGQSVVATPHEKIVHILSNAVGEIHMKTMPAAMYRLLTAQE | 2.11 | 0.608 A450 nm |
| GST-NeDLG PDZ domains 1, 2 fusion protein (protein) [about 200 residues not printed]SDLIEGRGSDGMFKYEEIVLERGNSGLGFSIAGGIDNPHVPDDPGIFITKIIPGGAAAMDGRLGVNDCVLRVNEVDVSEVVHSRAVEALKEAGPVVRLVVRRRQPPPETIMEVNLLKGPKGLGFSIAGGIGNQHIPGDNSIYITKIIEGGAAQKDGRLQIGDRLLAVNNTNLQDVRHEEAVASLKNTSDMVYLKVAKPGSL | 19.8 and 17.1 | 3.4 A450 nm and 3.12 A450 nm |

Several values for one entry are separate records, joined by “and”; a condition that tells them apart may be missing. Equal entries are not always repeated.
